# Laboratory results published in the RNAGym collection of RNA variant scans (doi:10.7554/elife.90254).
# Read counts are not given, so values of variants with three or more changes are uncertain.
# B1: LINE1-mini (parent)
# chain: GGCAGAGCUCAACACAGCGUGGCAAAGUGGCUGUGGCUAGACUGCC
# Variants of: B1
# Experiment: self-cleavage, relative activity (ratio to wild type); higher = more cleavage; in vitro, sequencing; the parent is a self-cleaving ribozyme
row,Variant,self-cleavage
1,A4G C23A G27A C31A G44C,0.02
2,C10A G19A C23U G44C,0.02
3,A6C U9G G19A A26G G27A,0.01
4,G7U C23A U28A G30U,0.01
5,C15U C18G G29C G33U,0.14
6,U9G G22A A26G U28A G35U C46U,0.03
7,C3U C13G A14G C23G C42U,0.06
8,U9A C23U A24U G36U,0.15
9,G5U G7U G40A,0.38
10,G1C A12G A26C G30U G44A,0.02
11,A14U U32A G35A C42U,0.41
12,U9G C10U C31G A39U,0.02
13,C13G A24U U34G,0.14
14,C8U C10U A16C A26U G30U U38A,0.01
15,C3A A11C U38A G40U,0.01
16,G1U G5C A11U,0.03
17,A11C G17U C18G,0.05
18,G2A C15G G21A G40A,0.03
19,G2C C15A C18U,0.12
20,G1U A12G G19U C37U,0.04
21,A24C G29U U34C G44U,0.14
22,G22C C23G G35U,0.02
23,A6G A14C G17U C18A,0.01
24,A6G C8G G17A G27A G29C U38C,0.03

row,Variant,self-cleavage
1,A14C U34G G40A,0
2,A26U G27A G44U,0.48
3,C31G C42A C46G,0.04
4,U9C A16C C18G,0.02
5,G2U G17A G22A,0.02
6,G1A C10A A14G U28A G30A C45G C46U,0.08
7,G21U C31G C46A,0.02
8,A11G C37G C46A,0
9,G5U C8A G35U C37A,0.13
10,A6U A11C C37G,0.01
11,G5A C15A U32A,0.05
12,G5C A14G U43A,0.01
13,C8G A16C A25C U34A C37A,0.02
14,C8U C15G G33U C37U U38G,0.04
15,G1A A6U G21C C23U,0.28
16,A4C U38A G40A,0.23
17,G27A G29A G33C,0.09
18,G22U G35U C42G C46A,0
19,G19U U20G A24G A39G G44A,0.03
20,A11G G19A C31U A39U,0.02
21,A4U C13U U28A G35A,1.79
22,A4C A26U C31G A41C,0.08
23,C3U G7A G33A U34C,0.17
24,G2A C8U C10U G29U C46A,0

row,Variant,self-cleavage
1,C13A G17C A26G G27C U43C,0.02
2,A26G C31G C46A,0.03
3,A14G G33U A39C,0.05
4,A4U A26C G36U C37G,0.02
5,C3U C23A U28G G33U U38C,0.02
6,A4U G21U C42U,0.03
7,A6U G7U A39G,0.02
8,G2U A12G G22U,0.03
9,G2A A14G G17A A39G,0.08
10,C13A G40U A41G U43C,0.06
11,G2U A11C G30U U34G G35A,0.01
12,G5U C23A U38A,0.05
13,A12C A24U A26C,0.02
14,U9C C18U C42G,0.01
15,A6G G17A G21U C23U C31U C37U,0.04
16,A12C C18U U28G,0.02
17,A12G G17C C45U,0.01
18,U20A G22U G30A,1.98
19,A11C C15A A16U C23A A24C G30U,0.01
20,G7C C23G A39U,0.04
21,G1U C37G U43C,0.02
22,U32G C37U C46A,0.04
23,G5C C18A A26U U34G G36C A41C G44A,0
24,G2C G36A C42G,0.03

row,Variant,self-cleavage
1,G1C A25G C31G,0.01
2,C13A U38A U43C,0.15
3,C8G C23U G27U G33A,0.03
4,C31A G40C G44U,0.03
5,A4C G27A U28G C46U,0.23
6,A12U G19A U28G,0.17
7,C13G A14U U20C G30U C42G C46A,0.02
8,G7A G33U C46U,0.23
9,G1A A12G G27A U43A,0
10,A6U G19A G36U A41U,0.01
11,C3U A11G G22A C46G,0.02
12,A12G C15U G27C G29U C31U G36U,0.02
13,A6G G7U G27A C45G,0.03
14,G7C C8U U9C G29U,0.02
15,G5C A6U U9A G17U G29U,0.05
16,A4C C15U U32C,0.15
17,C3U C8G A12C A25G,0.03
18,C8A C10A C23G C31U,0.02
19,A4U U20A G22U C23G C45A,0.11
20,G2C G36C C37A,0.02
21,G7U C15G G17U A24U,0.03
22,G21U A24U C31G,0.26
23,G17C G21U C31U G33C C37U,0.03
24,A6G G27A G35U,0.02

row,Variant,self-cleavage
1,C3U A11G A12G G19C U20A A41U,0.01
2,A6G C15A G22A G27A C37A,0.02
3,G2C U9G A16C G17C U38G,0.45
4,A12C A14C C18G C42G,0.03
5,G5U A16U U38G,0.03
6,G17A G22U G27U G35U,0.25
7,G29C U32C G44A,0.17
8,G7A C8A C31A,0.27
9,A6G U32A A39G,0.03
10,G7U C18U U20G C23U G27A G36A C37A A41C,0.02
11,C15U G17C G29U,0.1
12,C18A U20C C31U G35A C45A,0.02
13,U9G C23U A24C,0.05
14,C3U C8G U32C U34A,0.09
15,A12C A26U G29A,0.02
16,C3A G7C C13U U28C,0.34
17,C8U A14U A16C,0.03
18,A6G C23U A39C C45G,0.04
19,C13A A16U U20A G35U U38C,0.04
20,A4U A6U C45G,0.07
21,G2A C31A G33U,0.16
22,G2U G17C C31G U38C G40C C46A,0
23,G5C A11C G17U U43A C45G,0
24,C10U G17C A39U,2.29

row,Variant,self-cleavage
1,C23U C37U C45A,0.08
2,G17A G21A U43G,0.02
3,A4C C18A A25G G30A A39C,0
4,A11C G22A G35U U43G,0.01
5,C23A C37A U38C G40A,0.05
6,A11U G22A A24C U34C,0.03
7,A11G G36U A39U U43A,0
8,G2A C8G C15U,0.1
9,G19C A25U G29A G40C,0.02
10,U20A C23A A26G G27U,0.61
11,U20C C23U G27C G36A A41C C42G,0.02
12,G5C A12U G36U,0.09
13,C13A A25G G44A,0.07
14,U20A G22C G29U,0.4
15,C31G C37U U38G A41C,0.01
16,A6U G7U G35C,0.06
17,C31U G36U C37U C45G,0.02
18,A6G G7A C10G A14U G27U,0.02
19,G2U A41U G44A,0.21
20,G1C A6U G7U,0
21,G2C C10A A26C U32G G33A C45G,0.01
22,C3G C15G A26U G27C,0.02
23,U28G G33A G35A,0.1
24,G7C C15A G19A G21C G33U G44A,0.09

row,Variant,self-cleavage
1,G5A A12U G44C,0.08
2,A4U A6G A11U A26G C45U,0.01
3,G17C C18U A25U C42U,0.02
4,G1A U9A G17C G33C,0.03
5,G5C A16U U20C G22C,0.01
6,C8U A25U G27C U38G,0.07
7,G22C U28A C31U C37A,0.03
8,G1U C13A G17A C37G G44C,0.06
9,G19A G36A U38C,0.13
10,C15U G17U C18A A25G U28C,0.02
11,G17U U38G C46U,0.01
12,G5U C8G C18U A24C U32C U43G C45U,0.02
13,C3A A11U C13U,0.06
14,C8U C31U G40A A41G,0.28
15,G1C G7U A12G A26U,0.01
16,G2C A6C G29A U34C,0.02
17,U20C G22A A25G G36U,0.03
18,G5A G36A C46G,0.04
19,G5A C23A U34A,0.05
20,C10A U32C U34A C46A,0.02
21,G27C G40U C42A,0.04
22,A6C C8G A39C,0.06
23,C3A C31G U32G,0.13
